According to PubChem BioAssay AID2202238 (Ras Initiative Chemistry Research Team, Frederick National …, 2025):
Some of the results follow. Shown are side measurements of this screen, not its main read-out; they come without a call.

Biological target: GTPase KRas (Homo sapiens) (UniProt P01116)
Experiment: Cysteine mutants labelled by reactive fragments (mass read-out) (AID 2202238)
Parameters: protein at 5 µM with 500 µM competing thiol for 1.5 h
Details: KRAS G12D cysteine mutants, disulfide tethering, MALDI-TOF labeling, stronger effect = higher value, fragment at 500 µM
[1] = measured here: G60C mutant labeling
[2] = measured here: G75C mutant labeling
[3] = measured here: H94C mutant labeling
[4] = measured here: I36C mutant labeling
[5] = measured here: L120C mutant labeling
[6] = measured here: M67C mutant labeling
[7] = measured here: M72C mutant labeling
[8] = measured here: N26C mutant labeling
[9] = measured here: N86C mutant labeling
[10] = measured here: P121C mutant labeling
[11] = measured here: S122C mutant labeling
[12] = measured here: S136C mutant labeling

Chain of UniProt P01116 (P01116 whole entry, looked up, the tested form may be a part): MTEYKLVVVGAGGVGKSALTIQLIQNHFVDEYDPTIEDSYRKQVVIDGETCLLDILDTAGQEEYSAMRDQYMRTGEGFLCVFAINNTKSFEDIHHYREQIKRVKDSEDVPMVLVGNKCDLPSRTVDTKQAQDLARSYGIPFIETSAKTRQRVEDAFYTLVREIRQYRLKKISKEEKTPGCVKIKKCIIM

SMILES	percent labeling [1] [%]	percent labeling [2] [%]	percent labeling [3] [%]	percent labeling [4] [%]	percent labeling [5] [%]	percent labeling [6] [%]	percent labeling [7] [%]	percent labeling [8] [%]	percent labeling [9] [%]	percent labeling [10] [%]	percent labeling [11] [%]	percent labeling [12] [%]
O=C(NCCS)c1cc(C2CC2)nc2onc(-c3ccccc3)c12	34.1	7	9.6	8	6.8	7.6	20.6	19.9	4.1	7.8	4.1	15.5
COc1ccc(Br)cc1-c1nc(C(=O)NCCS)cs1	30	38.1	12.6	9.2	13.8	6	53	33.2	8.8	14.4	6.5	21.2
CC(C)(C(=O)NCCS)c1ccc(Cl)c(Cl)c1	39.3	15.8	16.9	12.4	21.8	17.8	33.2	28.2	13.7	15.5	12.5	21.4
Cc1nc2sccn2c1C(=O)NCCS	45.8	31.3	51.4	28.7	33.2	37.3	53	52.1	34	33.1	35.3	60.8
Cc1cc(CC(C)(C)C(=O)NCCS)ccc1Br	32.8	13.4	13.1	8	9.6	11.4	26.3	20.7	9.8	10.5	6.6	12.6
CC1CCN(c2cc(C(=O)NCCS)ccn2)C1 (centres undefined)	28.1	20.8	24.9	17.2	21.9	20.2	60.8	49	13.6	15.5	13.8	46.3
Cc1ncc(Cc2cccc(C(=O)NCCS)c2)s1	37	18.5	28.6	18.2	27	19.6	48.5	41	18.1	19.3	16	30
O=C(NCCS)C1COc2ccc(O)cc2O1 (centres undefined)	48.1	16.3	32	28.7	37.7	34.6	36.1	41.4	33.2	28.7	31.6	55.2
O=C(CC1(N2CCOCC2)CCCC1)NCCS	20.5	8	26.3	15.4	19.6	24.8	14.9	20.9	18.6	22	21	27.6
O=C(CCS)Nc1ccc2nc(C(F)F)[nH]c2c1		14.3	32.3	33.5	32.5	31.9	32.5		18.9	30.3	28	48.9
Cn1ccnc1[C@@H]1OCCC[C@H]1C(=O)NCCS	22.2	8.2	31.4	18.7	29.9	25.2	8.5	26.8	21.1	32.3	22.2	37.3
O=C(NCCS)C1(C(F)(F)F)CCOCC1	30.8	10.5	25.7	23.5	27.7	24.5	23.2	31.2	37.3	27	30.8	34.7
CO[C@H]1CCN(Cc2nc(C(=O)NCCS)co2)C1	19.2	9.2	27.5	21.8	35.3	25	13.3	32.2	22.7	23.9	25.5	33.5
Cc1sc(NC(=O)CCS)nc1-c1ccc2c(c1)CCC(=O)N2		15.8	14.5	15.2	8.6	11.4	52		11.3	9.4	2.8	22
